PubChem BioAssay AID1466 (National Center for Advancing Translational Sciences (NCATS), 2008)
In all, about 200,000 compounds went through this assay and about 10 (0.005%) were called active. Inconclusive results, whose numbers are uncertain, are shown with a selection of clear calls. Calls follow the shape of the dose curve; as a rule, active = well fitted inhibition curve with a large enough effect; inconclusive = small, poorly fitted or top-dose-only effect, or effect the other way, or another doubt; inactive = no such curve, though single readings can be large or run the other way. Potencies beside an inconclusive call are fits to weak or partial responses and may not hold up.

Biological target: Lysosomal alpha-glucosidase (Homo sapiens) (UniProt P10253)
Test: qHTS Assay for Inhibitors of Human alpha-Glucosidase as a Potential Chaperone Treatment of Pompe Disease;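 as to activity change, negative = inhibition: plate controls were uninhibited enzyme wells for no effect and no-enzyme background for full effect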
Settings: purified human GAA, 4-MU-alpha-glucoside fluorescence; activity change, negative = inhibition: at 76.9 µM (top of the series) unless noted
How it was run: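 Endpoint fluorogenic read: 20 min room-temperature reaction of 4 nM human alpha-glucosidase with 400 uM 4-methylumbelliferyl-alpha-D-pyranoside, pH 5.0, quenched with 1M NaOH/1M glycine pH 10. AC50 from Hill modeling.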
Potency is read from the fitted curve at half-maximal effect; tags tell the direction and shape of the fitted curve.

Potency, inconclusive:
COc1ccc(C(CNC(=O)c2ccccc2SC)N(C)C)cc1 (centres undefined) 6.31 µM [inhibitor, partial curve, poor fit]
CCOC(=O)c1c(C)n(C)c2ccc(OC)c(NC(=O)CN3CCN(Cc4ccccc4)CC3)c12 50.1 µM [inhibitor, single point]
Cc1cc(Cl)c(S(=O)(=O)NCc2ccccc2)cc1OCC(N)=O 11.2 µM [inhibitor, partial curve, poor fit]
CCCCN(C)CCCNC(=O)c1cn(CC)c2ccc(S(=O)(=O)N3CCc4ccccc4C3)cc2c1=O 28.2 µM [inhibitor, single point]
CN(n1cnc2ccccc2c1=O)S(C)(=O)=O 3.16 µM [inhibitor, partial curve, poor fit]
Cc1cccc(C(C)(C)C)c1OCCCCN1CCCC1 28.2 µM [inhibitor, single point]
FC(F)(F)c1cc(-c2ccco2)nc2ncnn12 28.2 µM [activator, single point]
C/C(CC(=O)Nc1ccc(N(C)C)cc1)=N\NC(=O)c1ccncc1 6.31 µM [inhibitor, single point]
Nc1c(C(=O)OCC2CCCO2)c2nc3ccccc3nc2n1C1CCCC1 (centres undefined) 39.8 µM [activator, partial curve]
O=S(=O)(NCCCN1CCN(c2ccccc2F)CC1)c1cccc2cccnc12 56.2 µM [inhibitor, partial curve, poor fit]
CCOC(=O)N1CCC(N2Cc3cccc(C(=O)NCc4ccc(C)cc4)c3C2=O)CC1 50.1 µM [inhibitor, single point]
COc1cccc(OC)c1C(=O)OCC(=O)Nc1ccc(OC(F)(F)F)cc1 8.91 µM [inhibitor, partial curve, poor fit]
COc1ccc(C2CC(=O)N(CC(=O)NCC3CCCO3)c3ccccc3S2)cc1 (centres undefined) 1.12 µM [inhibitor, full curve]
CCc1nc(SCC(=O)N2CCOCC2)c2c(=O)n(C)c(=O)n(C)c2n1 0.158 µM [activator, full curve, poor fit]
Cc1cccc(C)c1NC(=O)C1(N2C(=O)CC2c2ccccc2)CCCCC1 (centres undefined) 56.2 µM [inhibitor, single point]
CN1C=CC2=C(C#N)C(N)C(C#N)(C#N)[C@H](c3ccccc3)[C@H]2C1 (some centres undefined) 39.8 µM [activator, partial curve]
COc1cccc(/C=C/C(=O)Oc2ccc(C(=O)c3ccc(F)cc3)cc2)c1 1.78 µM [inhibitor, full curve]
COc1ccc(-c2csc(/C(C#N)=C\c3ccc(OC)c([N+](=O)[O-])c3)n2)cc1 10 µM [inhibitor, full curve, poor fit]
COc1ccc(CNC(=O)c2c(N)n(CCCN3CCOCC3)c3nc4ccccc4nc23)cc1 28.2 µM [activator, single point]
CCc1ccc[n+](-c2[nH]c(=O)sc2/C=N/NC([S-])=Nc2ccccc2)c1 28.2 µM [inhibitor, single point]
Cc1nc2ccc(C(C(F)(F)F)(C(F)(F)F)C(F)(F)F)cc2[nH]1 50.1 µM [inhibitor, single point]
O=C1c2ccccc2C(=O)N1CC#CCN1CCN(C(c2ccccc2)c2ccccc2)CC1 7.94 µM [inhibitor, full curve, poor fit]
CC1(C)CN=C(N(Cc2ccccc2)C(=O)Nc2ccccc2)S1 0.251 µM [inhibitor, full curve, poor fit]
COC(=O)Cn1c(=NC(=O)c2cc(OC)c(OC)c(OC)c2)sc2cc(OC)ccc21 31.6 µM [activator, partial curve]
CCCCNCCOCCOc1ccc(Cl)cc1Br 14.1 µM [inhibitor, partial curve, poor fit]
CCOC(=O)c1sc(=S)n(CC)c1NC(=O)C1CC1 28.2 µM [inhibitor, single point]
CN(C)c1ccc(/C=N/NC(=O)C(O)c2ccc(Br)cc2)cc1 (centres undefined) 25.1 µM [activator, partial curve]
CN(C)CCNc1oc(/C=C/c2ccccc2)nc1C#N 35.5 µM [activator, partial curve]
Cc1ccc(C(=O)COc2nc(C)cc(C)c2C#N)cc1 56.2 µM [inhibitor, single point]
COc1ccccc1C(O)(C(=O)NNc1cccc(C)c1)c1ccccc1OC 50.1 µM [inhibitor, single point]
Cc1ccc(C(=O)OC2CCS(=O)(=O)c3sccc32)cc1 (centres undefined) 28.2 µM [inhibitor, single point]
Cc1ccc(S(=O)(=O)N(CC(=O)Nc2ccccc2-c2ccccc2)c2ccc(C)cc2C)cc1 3.55 µM [inhibitor, full curve, poor fit]
NC(=O)c1sc2nc(N3CCOCC3)c3c(c2c1N)CCCC3 50.1 µM [activator, single point]
CNC(=S)N(CCc1ccccc1)Cc1cc2cc(OC)c(OC)cc2[nH]c1=O 56.2 µM [inhibitor, single point]
O=C(OCc1cccc([N+](=O)[O-])c1)c1ccc2ccccc2n1 35.5 µM [inhibitor, partial curve]

Activity change, negative = inhibition, inconclusive:
COC(=O)c1cc(C)sc1NC(=O)CC1Nc2ccccc2NC1=O (centres undefined) 14% [activator]
CC1(C)COC(c2cc([N+](=O)[O-])ccc2Cl)=N1 -15.8% [inhibitor]
CC(C)(C)S(=O)(=O)c1cnc2c(-c3ccsc3)cnn2c1N 16.4% [activator]
O=C(CSc1nnc(Cn2nnc3ccccc32)o1)Nc1ccc(Cl)cc1 -15.5% [inhibitor]
COC(=O)c1ccc(CNC(=O)COC(=O)COc2ccc(OC)cc2)cc1 -16.5% [inhibitor]
Cc1ccc(-c2cc(C(=O)N3CCc4ccccc4C3)no2)cc1 10.4% [activator]
Cc1ccc(C(=O)Nc2nc3ccccc3n2CCN2CCCC2)cc1 -17.5% [inhibitor]
O=C1CC(c2ccccc2)CN1C(=O)c1cccnc1 (centres undefined) 18.5% [activator]
CCC/C(O)=C1\C(=O)CC(C)(C)CC1=Nc1ccccc1O 16% [activator]
Cc1csc(SC(C)C(=O)Nc2ccc(S(=O)(=O)N3CCCC3)cc2)n1 (centres undefined) -17.1% [inhibitor]
CC(=O)c1cccc(NC(=O)Cc2ccc3c(c2)CCCC3)c1 -15% [inhibitor]
CCn1c(SCC(=O)N2CCN(C(=O)c3ccco3)CC2)nnc1C(C)C -18.7% [inhibitor]
c1ccc(CCNc2ccccc2)cc1 10.8% [activator]
CC1CN(C(=S)SCC(=O)c2ccccc2)CC(C)O1 (centres undefined) -15.8% [inhibitor]
Cc1cccc(NC(=O)CN2C(=O)NC(Cc3ccccc3)C2=O)c1 (centres undefined) -20.3% [inhibitor]
O=C1C(Cl)=C(NCCCN2CCOCC2)C(=O)N1CCc1ccccc1 -18.2% [inhibitor]
CC1CCCCN1CC(=O)Nc1ccc(N2CCCCCC2)cc1 (centres undefined) 7.35% [activator]
CC(C)Nc1nc(NC(C)C)nc(SCCOC(=O)Nc2ccc(Cl)cc2Cl)n1 -18% [inhibitor]
O=c1oc2c3c4c(cc2c2c1CCC2)OCCN4CCC3 110% [activator]
Cc1ccc(CN2CCN(Cc3ccc(O)cc3)CC2CCO)o1 (centres undefined) 10.2% [activator]
COc1ccc2nc(Nc3nc(C)c(C(C)=O)s3)sc2c1 -17.9% [inhibitor]
COc1cccc(C(=O)N=c2sc3cc(S(C)(=O)=O)ccc3n2C)c1 20.8% [activator]
COc1cc(C2C(C(=O)c3cccs3)=C(O)C(=O)N2c2cc(C)on2)ccc1O (centres undefined) 15% [activator]
O=C(CN1CCCCC1)N1N=C(c2cccs2)CC1c1cccs1 (centres undefined) 9.41% [activator]

Activity change, negative = inhibition, inactive:
CCOc1ccccc1N1C(=O)CC(N(O)c2ccccc2)C1=O (centres undefined) -1.04%
COc1ccc(-c2cnc(N)nc2-c2ccc(OCc3ccccc3)cc2O)cc1 -4.65%
Cc1cccc(CN2CCN(C3CCCC3)C(CCO)C2)n1 (centres undefined) -0.233%
N#Cc1cccc(NC(=O)Nc2cccs2)c1 0.682%
C=CCOc1cccc(/C=C2\C(=O)N(Cc3ccc(C)cc3)C(C)=C2C(=O)OC)c1 -7.67%
O=C(Nc1ccc2c(c1)OCO2)c1c(Cl)nc2sccn12 -2.8%
O=C(Nc1cccnc1)c1cccc(S(=O)(=O)N2CCCC2)c1 5.11%
CC1=[N+](C)c2c(ccc3cccnc23)C1(C)C 8.02%
O=C1/C(=C/c2cccs2)Cc2ccccc21 -5.38%
O=C(NC1CCCC1)C(c1ccncc1)N(Cc1cccs1)C(=O)c1csnn1 (centres undefined) -10.3%
